The campaign covered roughly 290,000 compounds. About 2,100 (0.72%) were called active. The shares of active, inactive and inconclusive entries below differ from those in the screen. Calls come from the whole dose curve; as a rule, active = well fitted inhibition curve with a large enough effect; inconclusive = small, poorly fitted or top-dose-only effect, or effect the other way; inactive = flat fitted curve, though single readings scatter. A potency beside an inconclusive call is a rough fit, not a confirmed value.
Biological target: Fructose-bisphosphate aldolase (Giardia intestinalis (strain ATCC 50803 / WB clone C6)) (UniProt A8B2U2)
UniProt A8B2U2, sequence (A8B2U2 whole entry, looked up): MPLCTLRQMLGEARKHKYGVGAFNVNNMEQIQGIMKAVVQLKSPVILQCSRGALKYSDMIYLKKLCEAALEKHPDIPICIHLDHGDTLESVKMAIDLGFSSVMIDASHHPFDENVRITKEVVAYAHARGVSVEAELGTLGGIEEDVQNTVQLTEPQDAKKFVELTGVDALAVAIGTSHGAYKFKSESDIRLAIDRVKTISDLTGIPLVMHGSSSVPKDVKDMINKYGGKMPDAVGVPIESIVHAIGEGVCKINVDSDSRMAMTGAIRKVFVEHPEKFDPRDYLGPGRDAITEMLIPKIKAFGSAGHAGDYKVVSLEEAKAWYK
Experiment: qHTS Assay for Inhibitors of Fructose-1,6-bisphosphate Aldolase from Giardia Lamblia; note: nearly all actives have a fitted effect of over 55% in size
Details: purified Giardia FBPA; activity, negative = inhibition: at 59.6 µM (top of the series) unless noted
Method in brief: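 40 nM FBPA preincubated 10 min at RT with compound (up to 57.5 uM final), then substrate plus GAPDH/TPI/NAD/arsenate coupling and diaphorase/resazurin added. Fluorescence read after 20 min at RT, 525/598 nm.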
% is set by controls: 0 for no effect and ±100 for the full control effect; potency is the fitted concentration of half-maximal effect; tags give direction and shape of the fitted curve.

Structure (SMILES) | Potency | activity, negative = inhibition
Cc1ccc(NC(=S)Nc2ccc(F)cc2)cc1 | inconclusive: 28.2 µM [inhibitor, single point] | –
Nc1cc2nc3ccccc3oc-2cc1=O | active: 17.7 µM | –
Nc1ccc(Oc2cc(N)cc(Oc3ccccc3)c2)cc1 | – | inactive: 2.7%
O=[N+]([O-])c1cccc(N/N=C/c2cccc3ccccc23)c1 | – | inactive: -1.24%
CN(Cc1ccc(Cl)cc1Cl)C(=O)c1cc(=O)c2ccccc2o1 | – | inactive: 2.02%
CN1CC[C@@]2(C)c3cc(O)ccc3N(C)[C@@H]12 | active: 4.46 µM | –
CCOc1ccccc1CN1CCC(N2CCOCC2)CC1 | active: 8.91 µM | –
O=[N+]([O-])c1ccccc1NCc1c(O)ccc2ccccc12 | inconclusive: 17.7 µM [inhibitor, partial curve] | –
O=C(OCc1cc(Cl)ccc1OC(F)F)c1cc(S(=O)(=O)O)ccc1O | inconclusive: 44.7 µM [activator, single point] | –
c1ccc(COc2ccc(-c3sc(Nc4ccccc4)n[n+]3-c3ccccc3)cc2)cc1 | inconclusive: 39.8 µM [inhibitor, single point] | –
CCOc1ccccc1-n1c(=S)sc2c(=O)n(-c3ccc(C)cc3)c(=S)[nH]c21 | inconclusive: 19.9 µM [inhibitor, partial curve] | –
COC(=O)CC1=NN(c2nc(C)cc(C)n2)C(=O)C1 | active: 5.61 µM | –
CC(=O)c1cccc(OCC(=O)N2CCCc3ccccc32)c1 | – | inactive: 4.22%
Cc1cc(C(=O)COC(=O)c2cc(O)c3ccccc3c2O)c(C)n1CC1CCCO1 (stereo not drawn) | inconclusive: 3.54 µM [inhibitor, full curve] | –
O=C(NC(=S)Nn1cnnc1)c1ccccc1Cl | inconclusive: 19.9 µM [inhibitor, single point] | –
COc1cc(/C=C2/C(=O)N(c3ccccc3)N=C2C)ccc1OS(=O)(=O)c1ccccc1 | inconclusive: 3.54 µM [inhibitor, partial curve] | –
CCOC(=O)c1cc(C)[nH]c(=O)c1C#N | inconclusive: 39.8 µM [inhibitor, single point] | –
N#Cc1c(-c2ccco2)c2c([nH]c1=S)CCCC2 | inconclusive: 25.1 µM [inhibitor, single point] | –
CCC(=O)Nc1ccc(NCc2ccc(-c3ccccc3)cc2)cc1 | inconclusive: 22.4 µM [inhibitor, partial curve] | –
Oc1cccc2nc3ccccc3nc12 | active: 17.7 µM | –
CSc1ccc(/C=C/C(=O)N2CCCN(C)CC2)cc1 | – | inactive: -0.169%
O=C(CNCc1ccc(Cl)cc1)N1CCc2ccccc2C1 | inconclusive: 15.8 µM [inhibitor, partial curve] | –
Cc1cc(C)nc(NS(=O)(=O)c2ccc(NC(=O)CSc3nc(-c4ccccc4)c(C#N)c(=O)[nH]3)cc2)n1 | inconclusive: 17.7 µM [activator, partial curve] | –
CCCCC(=O)Nc1cccc(NC(=O)c2ccc3c(c2)OCO3)c1 | – | inactive: 1%
CSCCC(NC(=O)COc1ccccc1)C(=O)N1CCCC(C)C1 (stereo not drawn) | – | inactive: -8.83%
CC(=O)n1cc([C@H]2C=C(C(=O)NCc3ccccc3)O[C@@H](OCCCCO)C2)c2ccccc21 | inconclusive: 17.7 µM [inhibitor, partial curve] | –

Structure (SMILES) | Potency | activity, negative = inhibition
Cc1cc(C(=O)NC(=S)Nc2cccc(NC(=O)C(C)C)c2)ccc1[N+](=O)[O-] | inconclusive: 4.46 µM [inhibitor, partial curve] | –
CCOc1ccc(NCc2cc3c(C(C)(C)C)nn(-c4ccccc4)c3[nH]c2=O)cc1 | inconclusive: 12.6 µM [inhibitor, partial curve] | –
Oc1cccc2cnccc12 | inconclusive: 17.7 µM [inhibitor, single point] | –
CCCCCn1c(=O)c(-c2nc3ccccc3[nH]2)c(O)c2ccccc21 | – | inactive: 7.79%
O=C(N/N=C/c1ccccn1)c1cccs1 | active: 12.6 µM | –
Cn1cc(S(=O)(=O)Cc2ccc(F)cc2)c2ccccc21 | inconclusive: 35.5 µM [inhibitor, partial curve] | –
O=C(/C=C/c1ccc(O)c(O)c1)c1ccc(S(=O)(=O)N2CCCCCC2)cc1 | inconclusive: 5 µM [inhibitor, full curve] | –
Clc1ccc(/C=N/Nc2ncnc3ccccc23)cc1Cl | – | inactive: -1.4%
Cc1nnc(N/N=C/C(C)c2ccccc2)[nH]c1=O (stereo not drawn) | inconclusive: 15.8 µM [inhibitor, partial curve] | –
CCCc1nc2c(=O)n(C)c(=O)nc-2n(C)n1 | active: 5 µM | –
Cc1cc(CN(C)C(=O)c2cc(COc3ccc(F)cc3Cl)on2)n[nH]1 | – | inactive: -1.35%
COc1c(F)c(F)c(C(=O)Nc2ccc3oc(-c4ccncc4)nc3c2)c(F)c1F | – | inactive: 1.08%
O=C(O)c1cc2ncc(CCO)cn2n1 | active: 15.8 µM | –
COc1ccc2c(c1OC)C(=O)N1C2SC(C)(C)[C@H]1C(=O)NC1CC1 (stereo partly drawn) | inconclusive: 39.8 µM [inhibitor, partial curve] | –
O=C(CCN1C(=O)COc2ccccc21)NCCCN1CCc2ccccc2C1 | inconclusive: 28.1 µM [inhibitor, single point] | –
c1coc(-c2nc3ccccc3nc2-c2ccco2)c1 | inconclusive: 3.15 µM [inhibitor, full curve] | –
CN1CCN(Cc2c(F)cccc2Cl)CC1 | active: 25.1 µM | –
C=CCc1ccc(OCCN2CCc3ccccc3C2)c(OC)c1 | inconclusive: 28.1 µM [inhibitor, partial curve] | –
Cc1ccsc1C(=O)N1CCCC(CO)(Cc2ccccc2)C1 (stereo not drawn) | – | inactive: 1.96%
COc1ccc(Cc2noc(-c3ccc(C)cc3)n2)cc1 | – | inactive: 1.82%
CN(C)CCCCOc1ccc(F)cc1 | – | inactive: -26.2%
O=c1c2ccccc2cnn1Cc1n[nH]c(=S)n1-c1cc(Cl)cc(Cl)c1 | – | inactive: 15.6%
COc1ccc(CCNc2nc(-c3ccc(F)cc3)c(CC(=O)O)s2)cc1OC | – | inactive: 1.4%
COc1cccc(CNS(=O)(=O)c2ccc(S(=O)(=O)N3CCCC3)cc2)c1 | active: 7.92 µM | –
COc1ccc([C@]23Cc4ccccc4C(O2)c2c(cc(C)n(Cc4ccccc4)c2=O)O3)cc1 | inconclusive: 2.24 µM [inhibitor, partial curve] | –
O=[N+]([O-])c1ccc(O)c(C=Nc2ccc3oc(Cc4ccc(Cl)cc4)nc3c2)c1 | inconclusive: 14.1 µM [inhibitor, partial curve] | –

Structure (SMILES) | Potency | activity, negative = inhibition
COc1cc(OC)c(OC)cc1CNCCNC(=O)c1ccco1 | inconclusive: 28.2 µM [inhibitor, partial curve] | –
O=C(COc1cccnc1[N+](=O)[O-])N1CCN(C(=O)c2ccco2)CC1 | active: 17.7 µM | –
N=C1/C(=C\c2ccc(-c3cccc(Cl)c3)o2)C(=O)N=C2SC=C(c3ccccc3)N12 | inconclusive: 3.97 µM [inhibitor, full curve, poor fit] | –
CCn1ncc(NC(=S)Nc2ccc3c(c2)OCO3)c1C(N)=O | active: 17.7 µM | –
CCOC(=O)N1CCC(N(CCN(C)C)C(=S)Nc2ccccc2OCC)CC1 | inconclusive: 31.5 µM [inhibitor, single point] | –
CCC(CO)Nc1nc2ccc(Cl)cc2c2ccccc12 (stereo not drawn) | – | inactive: -2.8%
CC(=O)Cc1cc(=O)c2c(C)cc(O)c(C3OC(CO)C(O)C(O)C3O)c2o1 (stereo not drawn) | inconclusive: 17.7 µM [inhibitor, partial curve] | –
COC(=O)c1ccc(NC(=O)c2cccc(C)c2)cc1 | – | inactive: -1.3%
CCN(CC)C(=O)c1sc2[nH]c(=S)n(-c3ccccc3)c(=O)c2c1C | inconclusive: 17.7 µM [inhibitor, partial curve] | –
COc1ccc(C(CCN2CCOCC2)c2c(OC)cc(OC)c3c(-c4ccccc4)cc(=O)oc23)cc1 (stereo not drawn) | – | inactive: -1.77%
NC(=O)c1cccc2c1-c1ccccc1/C2=N/NC(N)=S | active: 11.2 µM | –
O=C(CCCn1c(=S)[nH]c2ccsc2c1=O)Nc1ccc2c(c1)OCO2 | inconclusive: 15.8 µM [inhibitor, single point] | –
COc1cc([N+](=O)[O-])cc(/C=N/NC(=O)c2ccc(C)nc2)c1O | inconclusive: 2.23 µM [inhibitor, partial curve] | –
CCCCC(=O)Nc1cccc(-c2nc3ncccc3o2)c1C | – | inactive: 2.15%
CCOc1cccc(=O)c2c(C)n(C)c(C)c12 | inconclusive: 17.7 µM [inhibitor, single point] | –
C=CCn1cccc(C(=O)Nc2ccc(OC)cc2OC)c1=O | – | inactive: -3.57%
CCCCCCCCCC(=O)O[C@H](CC(=O)O)C[N+](C)(C)C | – | inactive: 1.65%
CCc1c(C)sc(NC(=O)c2cccs2)c1C#N | inconclusive: 15.8 µM [inhibitor, partial curve] | –
O=C1NC(=Nc2ccccc2Cl)SC1(CO)CO | inconclusive: 28.2 µM [inhibitor, single point] | –
Oc1c(N=Nc2ccc(F)cc2)ccc2ccccc12 | inconclusive: 12.6 µM [inhibitor, partial curve] | –
COC(=O)C(CC(=O)c1ccc(Br)cc1)n1ccnc1 (stereo not drawn) | inconclusive: 15.8 µM [inhibitor, single point] | –
Cc1ccccc1OCC(=O)N/N=C/c1cccc(Oc2ccc([N+](=O)[O-])cc2[N+](=O)[O-])c1 | inconclusive: 17.7 µM [inhibitor, partial curve] | –
Cc1cc[n+](-c2nc3ccccc3nc2C(=C=[N-])C#N)cc1 | inconclusive: 6.29 µM [inhibitor, partial curve] | –
CN1CCCN(Cc2ccccc2Br)CC1 | inconclusive: 28.2 µM [inhibitor, partial curve] | –
O=C(N/N=C/C1CC2CCC1C2)c1c[nH]c2ccccc12 (stereo not drawn) | – | inactive: -3.86%
COc1ccccc1N1CCN(CC(=O)N2CCCC2)CC1 | inconclusive: 17.7 µM [inhibitor, partial curve] | –

From PubChem BioAssay AID2451 (National Center for Advancing Translational Sciences (NCATS), 2010)
